Drawing on PubChem BioAssay AID1745853 (National Center for Advancing Translational Sciences (NCATS), 2022), this text covers activity change, negative = inhibition for 31 compounds.

Common to all, as to assay: Primary Screen for Target Class Profiling of Small Molecule Inhibitors of Methyltransferases
The target in assay [1] is Glycine N-methyltransferase (Homo sapiens) (UniProt Q14749). To be noted: purified enzyme, MTase-Glo SAH luminescence; measured here: GNMT inhibition; at 40 µM; stronger effect = lower value. In outline:
(§1)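 Each enzyme was assayed with SAM and its substrate. SAH formation detected by MTase-Glo luminescence; single-point 40 uM screen[…].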

Assay [2] addresses Guanidinoacetate N-methyltransferase (Homo sapiens) (UniProt Q14353). The conditions noted are these: purified enzyme, MTase-Glo SAH luminescence; measured here: GAMT inhibition; at 40 µM; stronger effect = lower value. In outline:
as §1

Assay [3] deals with Histamine N-methyltransferase (Homo sapiens) (UniProt P50135). The conditions noted are these: purified enzyme, MTase-Glo SAH luminescence; measured here: HNMT inhibition; at 40 µM; stronger effect = lower value. The method, boiled down:
as §1

The target of assay [4] is Nicotinamide N-methyltransferase (Homo sapiens) (UniProt P40261). To be noted: purified enzyme, MTase-Glo SAH luminescence; measured here: NNMT inhibition; at 40 µM; stronger effect = lower value. In outline: as §1
Assay [5] deals with Phenylethanolamine N-methyltransferase (Homo sapiens) (UniProt P11086). To be noted: purified enzyme, MTase-Glo SAH luminescence; measured here: PNMT inhibition; at 40 µM; stronger effect = lower value. In outline:
as §1

Some of the results follow. The main result of the screen is listed elsewhere. These columns were measured beside it and carry no call.
% is scaled to controls: 0 for no effect and ±100 for the full control effect.

`COC(=O)C1=CN(Cc2cccc(Cl)c2)S(=O)(=O)N=C1C`: the activity change, negative = inhibition in assay [1] is -2.39%; in assay [2] it was 0.714%; in assay [3], 2.53%; in assay [4], -0.178%; in assay [5], -5.12%.
Taken in the same sequence, the figures for `Cc1cc2c(cc3n2CC(C)(C(=O)NC2CCCCC2)N(Cc2ccccc2)C3=O)o1` (stereo not drawn) were -0.386%, 0.315%, -0.18%, -1.86% and -0.802%.
The corresponding values for `COc1ccc(CCc2nc(C3CC(=O)N(c4ccc(Cl)cc4)C3)no2)cc1` (stereo not drawn) are -8.12%, -3.8%, -1.51%, -11.8% and 3.02%.
As for `CC(=O)Nc1ccc(CN2CC3(Cc4ccccc4NC3=O)C2)cc1`, the activity change, negative = inhibition was -11.4% in assay [1]; -4.54% in assay [2]; -3.46% in assay [3]; -11.5% in assay [4]; -14.8% in assay [5].
The corresponding values for `CN(C)c1ccnc2sc3c(=O)n(N4CCCCCC4)cnc3c12` are -9.54%, -5.47%, -0.769%, -43.3% and -9.59%.
Taken in the same sequence, the figures for `CCOc1ccc(CNC(=O)c2cc3n(n2)CC(C)(C(=O)NC2CCCCC2)N(C)C3=O)cc1` (stereo not drawn) were 3.44%, 3.7%, -0.744%, 3.6% and -1.12%.
The corresponding values for `O=S(=O)(NCCc1nc2ccccc2[nH]1)c1ccccc1` are -7.92%, 3.05%, 0.896%, 7.35% and -3.59%.
For the compound `CN1C(=O)c2cccn2CC1C(=O)NC1CCCC1` (stereo not drawn), the activity change, negative = inhibition in assay [1] is -6.21%; in assay [2], -9.82%; in assay [3], -2.28%; in assay [4], -6.93%; in assay [5], -3.78%.
Taken in the same sequence, the figures for `CC(C)Cn1c(CNC(=O)OC(C)(C)C)nc2cccnc21` were -4.47%, -1.89%, -2.1%, -6.83% and -6.57%.
`COc1cccc(CSc2nnc3n(C)c(=O)c4ccc(C(=O)NC5CCCC5)cc4n23)c1`: the activity change, negative = inhibition amounted to 0.855% in assay [1]; 0.989% in assay [2]; 1.84% in assay [3]; 4.17% in assay [4]; 4.38% in assay [5].
The corresponding values for `Cc1ccc(CNC(=O)CCn2ccc3cc(S(=O)(=O)N4CCCCC4)ccc32)cc1` are 4.5%, 4.53%, 7.28%, 4.48% and 1.58%.
Taken in the same sequence, the figures for `C[C@@H](CC[C@@H]1[C@@]2(C)CCCC(C)(C)C2CC[C@@]1(C)O)CC(=O)O` (stereo partly drawn) were 1.49%, 4.66%, 12.2%, -9.23% and -0.351%.
The corresponding values for `CCOCCCN1C(=O)c2cc3sccc3n2CC1(C)C(=O)NC1CCCCCCC1` (stereo not drawn) are 4.26%, -12.5%, 7.47%, 1.5% and 3.54%.
As for `CC(C)Oc1ccc(C(=O)N[C@H](CNC(=O)CN(C)C)Cc2ccc(-c3cn4cccc([C@H](C)O)c4n3)cc2)cc1Cl`, the activity change, negative = inhibition was 13.2% in assay [2], -6.91% in assay [4] and 2.26% in assay [5].
For `Cc1ccccc1S(=O)(=O)NCCn1c(CCc2ccccc2)nc2ccccc21`, the activity change, negative = inhibition in assay [1] is -6.58%; in assay [2] it was 3.86%; in assay [3] it was -6.39%; in assay [4], -11.5%; in assay [5] it was -0.559%.
Taken in the same sequence, the figures for `Cc1cc(C)c(NC(=O)Cn2c(=O)oc3cc(S(=O)(=O)N4CCCC4)ccc32)c(C)c1` were -2.03%, 2.86%, 1.75%, 7.48% and -1.31%.
The corresponding values for `CC1(C(=O)NC2CCCCCC2)Cn2nc(-c3ccco3)cc2C(=O)N1Cc1cccs1` (stereo not drawn) are -2.01%, 0%, 2.86%, -11.8% and 0.226%.
In the case of `CC1CCC2(C(=O)OC3OC(CO)C(O)C(O)C3O)CCC3(C)C(=CCC4C5(C)CC(O)C(O)C(C)(C(=O)O)C5CCC43C)C2C1(C)O` (stereo not drawn), the activity change, negative = inhibition is 0% in assay [1]; 0.919% in assay [2]; 2.23% in assay [3]; -12.6% in assay [4]; 4.04% in assay [5].
Taken in the same sequence, the figures for `O=C(c1cc2c(cc1F)OC(c1ccc(F)cc1)(c1ccc(Cl)cc1Cl)O2)N1CCOCC1` (stereo not drawn) were -2.58%, -16.9%, 7.65%, -35.4% and -4.29%.
Taken in the same sequence, the figures for `Clc1nccc2c1ccc1ccccc12` were -42.9%, 9.98%, 1.81%, -8.57% and -0.185%.
The corresponding values for `COC1CCC12CCN(C(=O)c1cnc(C)cn1)CC2` (stereo not drawn) are -1.07%, -3.78%, -2.35%, -1.24% and 0.485%.
As to `COc1ccc(C)cc1NS(=O)(=O)c1ccc2c(c1)[C@H]1C=CC[C@H]1[C@@H](c1cccc(Cl)c1)N2`, the activity change, negative = inhibition in assay [1] is -11.8%; in assay [2], -5.77%; in assay [3], -19%; in assay [4] it was -25.7%; in assay [5], -16.6%.
The corresponding values for `Cc1ccc(-c2n[nH]n3c2nc(=O)c2ccc(C(=O)NCc4cccnc4)cc23)cc1` are -9.49%, -0.75%, -6.13%, -2.78% and -6.84%.
The corresponding values for `COc1ccc(CN2CC(Oc3ccccc3C(=O)NCc3ccccc3)C2)c(OC)c1` are -13.3%, -8.67%, -23.4%, -37.3% and -12.7%.
Taken in the same sequence, the figures for `CCCCNC(=O)c1cccc(-c2cc(N3CCN(C)CC3)nc(N)n2)c1` were -3.62%, -3.25%, -63.3%, -7.61% and -3.02%.
Regarding `Cc1ccc(C(=O)Cn2nc3n(CCCOC(C)C)c(=O)c4ccccc4n3c2=O)cc1`, the activity change, negative = inhibition in assay [1] was 1.68%; in assay [2], 0%; in assay [3], 6.03%; in assay [4] it was -0.114%; in assay [5], 3.3%.
With `CC1(C(=O)NC2CCCCCC2)Cn2nc(-c3ccco3)cc2C(=O)N1Cc1ccccc1Cl` (stereo not drawn), the activity change, negative = inhibition in assay [1] is -1.63%; in assay [2], 0%; in assay [3], 1.04%; in assay [4], -0.324%; in assay [5], -1.97%.
Consider `O=C(CCN1CCCCO1)N1CCOC(CCCc2ccccc2)C1` (stereo not drawn), for which the activity change, negative = inhibition in assay [1] was 1.25%; in assay [2], -3.24%; in assay [3] it was 2.5%; in assay [4] it was 1.53%; in assay [5] it was 3.46%.
Taken in the same sequence, the figures for `CCCN1C(=O)c2cc(C(=O)NCCOC)nn2CC1(C)C(=O)NC1CCCC1` (stereo not drawn) were 2.81%, 0%, 3.99%, 2.59% and 0.807%.
The corresponding values for `Cc1cc(C)n(CC(=O)N2CCC(c3nc(CCOCC4CCCC4)no3)C2)n1` (stereo not drawn) are 1.58%, 2.19%, 2.15%, 0.097% and 4.04%.
The corresponding values for `CC(C)CN1C(=O)c2cccn2CC1C(=O)N(C)Cc1cccnc1` (stereo not drawn) are -4.68%, -3.65%, -3.05%, -4.79% and 2.63%.
